The target of the assay is T1, human Leucine-Rich Repeat-Containing Protein 33 (LRRC33) (human, UniProt Q86YC3 19-692).
T1 construct: tested on cells or in cell lysates; Signal peptide 1-18 as stated left out; also called NRROS; FLAG-LRRC33
T1 sequence: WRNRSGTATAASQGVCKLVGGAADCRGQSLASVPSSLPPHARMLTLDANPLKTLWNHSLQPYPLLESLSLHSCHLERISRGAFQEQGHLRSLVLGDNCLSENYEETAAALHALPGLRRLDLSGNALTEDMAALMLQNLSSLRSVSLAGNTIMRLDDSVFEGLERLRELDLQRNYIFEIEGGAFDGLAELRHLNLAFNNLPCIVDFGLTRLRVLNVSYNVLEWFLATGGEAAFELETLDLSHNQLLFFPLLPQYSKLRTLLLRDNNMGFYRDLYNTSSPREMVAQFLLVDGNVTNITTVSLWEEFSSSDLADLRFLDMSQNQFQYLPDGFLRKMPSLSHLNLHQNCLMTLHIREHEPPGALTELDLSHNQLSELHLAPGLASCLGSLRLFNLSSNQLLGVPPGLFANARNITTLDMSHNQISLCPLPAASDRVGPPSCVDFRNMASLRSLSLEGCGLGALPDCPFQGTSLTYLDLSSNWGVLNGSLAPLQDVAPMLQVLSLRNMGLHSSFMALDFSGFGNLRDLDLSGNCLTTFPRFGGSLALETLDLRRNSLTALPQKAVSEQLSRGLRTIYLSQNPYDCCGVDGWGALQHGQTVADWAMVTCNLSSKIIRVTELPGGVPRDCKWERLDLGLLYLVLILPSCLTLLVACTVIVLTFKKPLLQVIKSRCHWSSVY
As to the kind of experiment: co-immunoprecipitation from 293T lysates (FLAG IP, prodomain blot, and the reverse). The protocol:
After 48 hours of transfection, cells were collected and lysed in IP lysis buffer (50 mM Tris pH7.4, 150 mM NaCl, 2 mM EDTA, 1% NP-40), which was supplemented with a protease inhibitor cocktail (Roche) and subjected to western blot analysis or were used for immunoprecipitation with the indicated antibody. Performed as described previously {Wang et al, 2012}. L1.2 cells were transfected with indicated plasmid using electroporation. For microglia cell culture, freshly isolated microglia (at age 3 weeks) were cultured in 6-well (2×10⁵ cells per well in 2 ml) poly-D-lysine-coated plates, and grown in serum free microglia culture medium: Neurobasal medium with B-27 supplements (Thermo Fisher), 5 ug/ml insulin, 2 mM L-glutamine, 1 mM sodium pyruvate, 5 μg/ml N-acetyl cysteine (NAC), 100 U/ml penicillin, […] streptomycin, 10 μM thyroxine, 1×SATO (100 μg/ml transferrin, 100 μg/ml BSA, 16 μg/ml putrescine, 60 ng/ml progesterone, 40 ng/ml sodium selenite) (sigma) and mouse recombinant carrier free CSF 10 ng/ml (R&D Systems) at 37° C., 5% CO². Cells were cultured for at least 5 d without changing medium.
Using immunoprecipitation and Western blotting, the prediction that LRRC33 associates with pro-TGF-β1 was confirmed. […]

B1: human pro-TGF-β1 (ligand)
chain: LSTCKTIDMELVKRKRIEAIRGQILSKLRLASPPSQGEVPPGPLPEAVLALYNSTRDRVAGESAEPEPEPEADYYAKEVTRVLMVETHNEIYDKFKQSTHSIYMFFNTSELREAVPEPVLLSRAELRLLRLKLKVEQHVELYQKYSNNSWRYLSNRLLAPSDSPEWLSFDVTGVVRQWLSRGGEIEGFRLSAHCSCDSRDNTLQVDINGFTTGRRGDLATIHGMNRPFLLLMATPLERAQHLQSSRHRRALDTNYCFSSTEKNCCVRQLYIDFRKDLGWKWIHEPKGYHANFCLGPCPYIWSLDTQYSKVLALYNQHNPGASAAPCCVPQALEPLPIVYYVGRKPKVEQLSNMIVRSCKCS
notes: Prodomain ([…]) plus TGF-β ([…]) of the human precursor, signal peptide […] left out as stated; also called latent TGF-β1
Regarding B1, the binding result is given as “binds”.
